{"source": "the supplement of paper PMC3334620", "note": "Over roughly 33,000 sequences, “E-score (-0.5 to 0.5)” has its median near -0.053; the highest 2% begin near 0.37. This is one part of the list.", "data": [{"molecular_target": "Hap1 (UniProt P0CE41)", "sequence (P0CE41 whole entry, the tested form may be a part)": "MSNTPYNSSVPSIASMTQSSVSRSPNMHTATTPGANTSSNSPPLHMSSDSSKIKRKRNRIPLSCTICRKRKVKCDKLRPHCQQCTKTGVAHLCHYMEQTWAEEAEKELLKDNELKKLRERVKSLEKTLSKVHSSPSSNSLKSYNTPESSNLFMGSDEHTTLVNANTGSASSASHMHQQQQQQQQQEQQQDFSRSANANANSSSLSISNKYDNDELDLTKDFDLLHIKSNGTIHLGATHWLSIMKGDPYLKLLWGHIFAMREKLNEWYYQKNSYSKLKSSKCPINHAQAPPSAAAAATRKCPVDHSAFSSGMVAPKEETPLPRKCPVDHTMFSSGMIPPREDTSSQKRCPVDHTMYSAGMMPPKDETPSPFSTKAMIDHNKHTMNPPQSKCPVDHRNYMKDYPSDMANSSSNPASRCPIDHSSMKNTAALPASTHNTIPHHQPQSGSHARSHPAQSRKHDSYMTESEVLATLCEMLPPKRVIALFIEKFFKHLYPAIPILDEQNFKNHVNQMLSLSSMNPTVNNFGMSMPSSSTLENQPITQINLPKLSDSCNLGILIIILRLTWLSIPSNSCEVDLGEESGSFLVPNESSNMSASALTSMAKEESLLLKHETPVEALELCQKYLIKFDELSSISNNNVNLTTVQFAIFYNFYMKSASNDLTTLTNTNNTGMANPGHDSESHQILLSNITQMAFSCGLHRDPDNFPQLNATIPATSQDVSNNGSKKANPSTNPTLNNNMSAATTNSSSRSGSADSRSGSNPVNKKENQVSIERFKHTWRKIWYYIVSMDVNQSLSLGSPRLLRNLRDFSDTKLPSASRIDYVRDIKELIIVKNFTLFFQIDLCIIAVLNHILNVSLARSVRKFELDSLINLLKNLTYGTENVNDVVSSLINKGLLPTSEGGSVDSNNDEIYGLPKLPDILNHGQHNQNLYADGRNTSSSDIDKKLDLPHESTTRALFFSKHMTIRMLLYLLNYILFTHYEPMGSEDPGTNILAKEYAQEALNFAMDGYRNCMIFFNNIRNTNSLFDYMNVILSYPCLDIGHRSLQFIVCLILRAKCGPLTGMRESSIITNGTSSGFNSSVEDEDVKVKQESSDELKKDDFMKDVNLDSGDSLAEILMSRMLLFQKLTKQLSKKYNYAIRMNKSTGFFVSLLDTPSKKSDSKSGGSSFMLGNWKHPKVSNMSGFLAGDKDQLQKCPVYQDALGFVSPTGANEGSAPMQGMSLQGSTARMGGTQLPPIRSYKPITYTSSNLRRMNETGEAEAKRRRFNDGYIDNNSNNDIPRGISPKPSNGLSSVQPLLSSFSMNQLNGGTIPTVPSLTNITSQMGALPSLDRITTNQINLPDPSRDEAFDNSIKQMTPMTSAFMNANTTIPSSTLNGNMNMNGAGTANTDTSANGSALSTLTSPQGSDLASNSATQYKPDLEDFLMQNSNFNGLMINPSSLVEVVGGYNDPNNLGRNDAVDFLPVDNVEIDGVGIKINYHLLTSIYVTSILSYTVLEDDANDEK", "assay": "PBM E-score (8-mer binding enrichment) (E-score (-0.5 to 0.5)); higher = stronger / more preferred TF binding; most listed sequences are background and not binding sites", "conditions": "protein concentration: 200 nM; construct: GST-DNA-binding domain", "how_it_was_run": "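Universal all-10-mer Agilent arrays, double-stranded by primer extension on fresh or once-stripped slides, were probed with about 100-200 nM GST-tagged yeast transcription factors made by PURExpress. Fluorescent anti-GST detected bound protein, and masliner normalised the scans. E-scores from the Universal PBM Analysis Suite were given to each ungapped eight-base word pooled with its reverse complement.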", "values": [{"sequence": "AGGGCATA", "PBM E-score": -0.102}, {"sequence": "CGTGTTAC", "PBM E-score": -0.142}, {"sequence": "AACGGGAT", "PBM E-score": 0.321}, {"sequence": "CTATAAAC", "PBM E-score": 0.122}, {"sequence": "CTACGCCC", "PBM E-score": 0.0263}, {"sequence": "TAGTTCGA", "PBM E-score": -0.21}, {"sequence": "CCACCAGG", "PBM E-score": -0.128}, {"sequence": "AGTAGGGC", "PBM E-score": 0.00312}, {"sequence": "ACCCTTTG", "PBM E-score": -0.0833}, {"sequence": "CGTTTTAC", "PBM E-score": -0.065}, {"sequence": "ATTGTGCC", "PBM E-score": -0.0487}, {"sequence": "AGTGGTAG", "PBM E-score": -0.272}, {"sequence": "CAAAGTCG", "PBM E-score": -0.114}, {"sequence": "GCGCGAAC", "PBM E-score": 0.224}, {"sequence": "ATGGTAGG", "PBM E-score": -0.267}, {"sequence": "CAGTACGA", "PBM E-score": -0.0342}, {"sequence": "CTAGATTA", "PBM E-score": -0.148}, {"sequence": "ACCGAAAC", "PBM E-score": 0.323}, {"sequence": "TCCAACGA", "PBM E-score": -0.239}, {"sequence": "CTTAGGGC", "PBM E-score": 0.0704}, {"sequence": "ATACTAGA", "PBM E-score": -0.154}, {"sequence": "TTCCAAAA", "PBM E-score": -0.133}, {"sequence": "AACGACTG", "PBM E-score": -0.27}, {"sequence": "CGCGGGTA", "PBM E-score": 0.142}, {"sequence": "AGCTGCAT", "PBM E-score": -0.254}, {"sequence": "CACCTACG", "PBM E-score": -0.0607}, {"sequence": "AAATTTCC", "PBM E-score": 0.232}, {"sequence": "AGTAGGAT", "PBM E-score": -0.135}, {"sequence": "ATGAGTTA", "PBM E-score": -0.207}, {"sequence": "CAGAATTA", "PBM E-score": 0.0222}, {"sequence": "CAGTGGCA", "PBM E-score": -0.241}, {"sequence": "AGGGATGA", "PBM E-score": -0.133}, {"sequence": "ACAAATGT", "PBM E-score": -0.00592}, {"sequence": "CAGCAAGG", "PBM E-score": -0.286}, {"sequence": "GAGGAAGA", "PBM E-score": -0.094}, {"sequence": "GTTCCATA", "PBM E-score": -0.0357}, {"sequence": "CCGCGCTA", "PBM E-score": 0.11}, {"sequence": "ATCCTCTG", "PBM E-score": -0.187}, {"sequence": "AATTGCAT", "PBM E-score": -0.089}, {"sequence": "CTAGATAA", "PBM E-score": -0.192}, {"sequence": "CGAAGTAA", "PBM E-score": 0.154}, {"sequence": "GCGATACA", "PBM E-score": 0.0344}, {"sequence": "ATGGCCCC", "PBM E-score": 0.0323}, {"sequence": "ATATCAAT", "PBM E-score": -0.0951}, {"sequence": "ACATCTGA", "PBM E-score": -0.226}, {"sequence": "AACACTAG", "PBM E-score": -0.103}, {"sequence": "ACGTGTAT", "PBM E-score": -0.151}, {"sequence": "ATACGGCA", "PBM E-score": 0.0304}, {"sequence": "CGAGGCCC", "PBM E-score": 0.214}, {"sequence": "GGACAACC", "PBM E-score": 0.0161}, {"sequence": "ATCCATGC", "PBM E-score": -0.0967}, {"sequence": "CCAACGTA", "PBM E-score": -0.351}, {"sequence": "CCCTGAGA", "PBM E-score": -0.313}, {"sequence": "ACTGTGCC", "PBM E-score": -0.219}, {"sequence": "AAGATCCG", "PBM E-score": 0.273}, {"sequence": "GGTTTAGA", "PBM E-score": -0.086}, {"sequence": "CTAACGAC", "PBM E-score": -0.254}, {"sequence": "CGTAAGAC", "PBM E-score": -0.0259}, {"sequence": "AAAGCCCT", "PBM E-score": -0.0264}, {"sequence": "GCGTCCCA", "PBM E-score": -0.0794}, {"sequence": "TAGTATAA", "PBM E-score": 0.0717}, {"sequence": "ATCTGGGG", "PBM E-score": -0.257}, {"sequence": "TGAAACAA", "PBM E-score": -0.0836}, {"sequence": "TACGCAGA", "PBM E-score": 0.0345}, {"sequence": "AACCTCCG", "PBM E-score": 0.365}, {"sequence": "ATTCACTA", "PBM E-score": -0.0607}, {"sequence": "GAGCGGAC", "PBM E-score": 0.217}, {"sequence": "TATATCGA", "PBM E-score": 0.17}, {"sequence": "CTCGCGTA", "PBM E-score": -0.0418}, {"sequence": "GATGTGGC", "PBM E-score": -0.0304}, {"sequence": "GTGTACCA", "PBM E-score": -0.309}, {"sequence": "CCAGGACC", "PBM E-score": -0.0476}, {"sequence": "CGAAAGCA", "PBM E-score": 0.155}, {"sequence": "GACTTCTC", "PBM E-score": -0.00925}, {"sequence": "CATTGTCA", "PBM E-score": -0.199}, {"sequence": "ATAGGGTC", "PBM E-score": -0.137}, {"sequence": "AGGTAGAC", "PBM E-score": -0.0678}, {"sequence": "CCAACCCC", "PBM E-score": -0.121}, {"sequence": "ACCATTAC", "PBM E-score": 0.0302}, {"sequence": "CAACGTGG", "PBM E-score": -0.231}, {"sequence": "TGCACCCA", "PBM E-score": 0.0334}, {"sequence": "GTTAGCTA", "PBM E-score": -0.175}, {"sequence": "CCGGAATA", "PBM E-score": 0.357}, {"sequence": "GTTAAGCA", "PBM E-score": 0.124}, {"sequence": "GCAGACAC", "PBM E-score": -0.0725}, {"sequence": "ATCAAATG", "PBM E-score": 0.14}, {"sequence": "AGAATGCA", "PBM E-score": 0.06}, {"sequence": "CGGCATGC", "PBM E-score": 0.158}, {"sequence": "ACTAGGGG", "PBM E-score": -0.0734}, {"sequence": "TGCCTACA", "PBM E-score": -0.0234}, {"sequence": "GTGGTTAA", "PBM E-score": -0.165}, {"sequence": "GCGGGGAC", "PBM E-score": 0.163}, {"sequence": "AGGTATAA", "PBM E-score": 0.0317}, {"sequence": "CGTCGTGC", "PBM E-score": -0.145}]}]}
